Reference: article PMC4336329 (PLoS ONE, 2015)
The whole screen tested about 310,000 compounds, of which about 14,000 (4.5%) showed an effect of 50% or more. The effect is printed as a negative number. This is one part of the list.

Molecular target: human ether-à-go-go-related gene (hERG) potassium channel (human, UniProt Q12809)
Assay: primary screen, population patch clamp on CHO cells stably expressing hERG
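Further: peak tail current of the secondary pulse compared with the same well before compound.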

Chain of human ether-à-go-go-related gene (hERG) potassium channel (Q12809 whole entry, looked up): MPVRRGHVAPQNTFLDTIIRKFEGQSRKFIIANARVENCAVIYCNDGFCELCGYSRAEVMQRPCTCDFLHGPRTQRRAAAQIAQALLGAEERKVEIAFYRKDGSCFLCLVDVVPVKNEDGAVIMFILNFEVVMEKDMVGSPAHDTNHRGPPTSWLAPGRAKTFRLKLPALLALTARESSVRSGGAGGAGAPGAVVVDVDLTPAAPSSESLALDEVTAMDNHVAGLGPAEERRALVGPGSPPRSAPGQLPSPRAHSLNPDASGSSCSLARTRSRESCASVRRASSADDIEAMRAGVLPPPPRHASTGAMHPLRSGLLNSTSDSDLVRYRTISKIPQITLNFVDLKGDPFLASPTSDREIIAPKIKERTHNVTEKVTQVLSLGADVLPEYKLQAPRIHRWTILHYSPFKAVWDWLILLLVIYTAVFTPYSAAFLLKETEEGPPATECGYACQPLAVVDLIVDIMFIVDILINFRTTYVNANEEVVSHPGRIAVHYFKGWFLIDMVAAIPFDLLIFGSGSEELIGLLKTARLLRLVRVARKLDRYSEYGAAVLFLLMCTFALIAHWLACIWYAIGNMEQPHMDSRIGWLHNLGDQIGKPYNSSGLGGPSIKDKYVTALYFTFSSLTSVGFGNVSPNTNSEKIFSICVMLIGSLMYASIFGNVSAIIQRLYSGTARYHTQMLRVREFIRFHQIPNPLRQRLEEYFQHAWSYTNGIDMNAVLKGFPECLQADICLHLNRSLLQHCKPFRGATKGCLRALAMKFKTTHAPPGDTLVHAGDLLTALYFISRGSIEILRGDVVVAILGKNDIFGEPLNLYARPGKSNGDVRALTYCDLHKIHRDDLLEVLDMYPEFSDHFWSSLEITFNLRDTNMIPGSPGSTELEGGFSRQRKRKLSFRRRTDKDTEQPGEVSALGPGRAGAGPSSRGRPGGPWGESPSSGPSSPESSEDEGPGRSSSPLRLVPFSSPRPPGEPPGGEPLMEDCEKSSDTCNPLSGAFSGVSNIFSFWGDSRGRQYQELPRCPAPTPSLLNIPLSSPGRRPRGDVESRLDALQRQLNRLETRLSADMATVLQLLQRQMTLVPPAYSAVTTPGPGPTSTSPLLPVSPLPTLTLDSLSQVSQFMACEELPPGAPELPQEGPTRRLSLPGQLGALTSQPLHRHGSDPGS

| SMILES | hERG current change (%, negative = inhibition) at 10uM |
| --- | --- |
| CCC(CC)C(=O)Nc1nnc(S(=O)(=O)Nc2ccc(OC)cc2)s1 | 9.66% |
| Cc1ccc(C)c(S(=O)(=O)N2CCN(CC(=O)Nc3ccc([N+](=O)[O-])cc3)CC2)c1 | -40.7% |
| COc1cccc(N2C(=O)CN(Cc3ccc(OC)c(OC)c3)C2=S)c1 | 17% |
| COc1ccc(CN2C(=NC(=O)COc3ccccc3)SC3CS(=O)(=O)CC32)cc1 (stereo not drawn) | -6.21% |
| CCCCn1c(N)c(N(CCOC)C(=O)c2ccc(N3CCCC3=O)cc2)c(=O)[nH]c1=O | -4.48% |
| CN1CCN(C(=O)/C(=C\c2cccs2)NC(=O)c2cccs2)CC1 | -72.5% |
| COc1ccc(OC)c(NC(=S)NC(=O)c2ccc(Br)o2)c1 | 19.9% |
| CC(C)Sc1cc(N2CCOCC2)nc(-c2ccccc2)n1 | 2.76% |
| COc1cc(NC(=O)Cn2cnc3c(nc4n3CCCCC4)c2=O)cc(OC)c1OC | 22.8% |
| CSc1nnc(CNC(=O)C23CC4CC(CC(C4)C2)C3)n1Cc1ccccc1 | -4.68% |
| COc1ccc(OC)c2[nH]c(=O)c(CCNC(=O)c3ccc(S(=O)(=O)N(C)C)cc3)cc12 | 0.759% |
| Cn1c(N)c(C(=O)CSc2nnnn2-c2ccccc2)c(=O)n(C)c1=O | 20.7% |
| Cc1ccc(S(=O)(=O)n2nc(OC(=O)c3ccccc3F)cc2N)cc1 | 9.49% |
| COc1ccc(CNC(=O)CSc2ncnc3nc[nH]c23)cc1 | -0.00572% |
| Cc1cccc(/C=N/NC(=O)C(C)Nc2cccc3ccccc23)n1 (stereo not drawn) | 0.248% |
| COC(=O)c1ccc(C2c3c(oc4ccc(F)cc4c3=O)C(=O)N2CCO)cc1 (stereo not drawn) | 3.74% |
| COCCNC(=O)c1ccccc1NC(=O)Nc1ccccc1 | 5.07% |
| O=c1c(Cc2ccc(F)cc2)c(O)ccn1CCc1ccccn1 | 12.4% |
| CCCCSP1(=S)NCCCN1 | 10.1% |
| Cc1cccc(NC(=S)NCc2ccncc2)c1C | 2.85% |
| COc1ccc(CCNC(=O)c2csc3c2CCCC3)cc1 | 7.93% |
| O=C(NCc1ccccn1)c1cc(-n2cnnc2)ccc1Cl | 4.84% |
| O=C(NNC(=O)C1CC=CCC1C(=O)O)c1ccc(Cl)cc1 (stereo not drawn) | 20.6% |

| SMILES | hERG current change (%, negative = inhibition) at 10uM |
| --- | --- |
| Cc1cc(C)nc(Nc2ncc(O)n2-c2ccc(Br)cc2)n1 | 7.17% |
| Cc1ccccc1Nc1nc2ccccc2n1C(C)C | 3.62% |
| COc1ccccc1OCCn1cc(C#N)c2ccccc21 | 6.21% |
| Cc1cc(C)c2c(N)c(C(=O)N/N=C/c3cccs3)sc2n1 | 11.4% |
| COc1cccc(C(=O)N2CCN(C(=O)Cc3ccccc3)CC2)c1.O=C(O)C(=O)O | -0.00122% |
| O=C(O)c1ccccc1C(=O)NC1=NN(c2ccccc2)CC1 | -0.462% |
| O=S(=O)(/C=C/c1ccccc1)Oc1ccccc1 | -11.7% |
| Cc1noc(C)c1S(=O)(=O)NCc1ccc2c(c1)OCO2 | -4.46% |
| Cc1nnc(NC(=O)c2c(-c3ccccc3Cl)noc2C)s1 | 12.1% |
| CCOC(=O)Cc1csc(NC(=O)c2c(O)c3ccccc3n(CC(C)C)c2=O)n1 | -6.33% |
| CNC(=O)COC(=O)c1cc2c(s1)CCCC2 | 12.5% |
| O=C(Cn1cnc(S(=O)(=O)N2CCCC2)c1)Nc1cccc(F)c1 | 15.8% |
| COc1ccc(NS(=O)(=O)c2cc(NC(=O)CC(=O)c3ccc([N+](=O)[O-])cc3)ccc2C)cc1 | 5.94% |
| COCCn1cnc2c1c(=O)n(CC(=O)NC(=O)NC(C)(C)C)c(=O)n2Cc1ccccc1 | 2.13% |
| CC(C(=O)N1CCN(C=O)CC1)N1C(=O)c2ccccc2C1=O (stereo not drawn) | 6.4% |
| CCc1nc(SCC(=O)Nc2cc(C)ccc2OC)c2c(C)c(C)sc2n1 | 13.4% |
| COc1cccc(NC(=O)CSc2nc(C)cs2)c1 | 5.74% |
| Cc1ccc(C)c2nc(Cl)c(C3NC(=O)c4ccccc4N3)cc12 (stereo not drawn) | -4.91% |
| O.O=C(NCc1nc2ccccc2[nH]1)c1ccc(Cl)c(S(=O)(=O)N2CCCC2)c1 | -14.3% |
| CSc1nc(=O)n(-c2ccccc2)c(C)c1C(C)=O | 22.3% |
| O=C(CCCN1C(=O)/C(=C/c2cccs2)SC1=S)NNC(=O)c1ccccc1O | 4.76% |
| O=C(CSc1nnc(-c2ccccc2Cl)o1)N1CCCC1 | 18.4% |
